According to PubChem BioAssay AID540317 (National Center for Advancing Translational Sciences (NCATS), 2011):
Screen size: about 390,000 compounds; about 2,200 (0.56%) were called active. Inconclusive means that the source gave no clear call. Such entries were picked first, then a sample of the others. The call rests on the fitted dose curve; in most records, active means well fitted inhibition curve with a large enough effect; inconclusive means small, poorly fitted or top-dose-only effect; inactive means no such curve, though single readings can be large or run the other way. Potencies beside an inconclusive call are fits to weak or partial responses and may not hold up.
Further: nearly all actives have a fitted effect of over 70% in size.
Potency means the concentration at half of the fitted maximal effect; tags describe the fitted curve by direction and shape.

These molecules were tested against Chromobox protein homolog 1 (Homo sapiens) (UniProt P83916) (assay: HTS for Inhibitors of HP1-beta Chromodomain Interactions with Methylated Histone Tails). Conditions: AlphaScreen HP1-beta / biotin-H3K9me3 peptide binding; series mostly up to 114 µM; activity change, negative = inhibition: at the top concentration.
Sequence of UniProt P83916 (P83916 whole entry, looked up): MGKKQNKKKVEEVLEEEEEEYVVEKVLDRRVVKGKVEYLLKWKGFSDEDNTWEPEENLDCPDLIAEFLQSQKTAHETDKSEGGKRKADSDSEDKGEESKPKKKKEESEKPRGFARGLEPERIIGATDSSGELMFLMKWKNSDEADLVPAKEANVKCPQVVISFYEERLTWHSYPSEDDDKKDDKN
Outline: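 HP1-beta protein (50 nM final) preincubated 30 min at room temperature with biotinylated H3(1-18)K9me3 peptide (50 nM) in PBS pH 7.4, 0.01% Tween-20, then compound added for 30 min. AlphaScreen streptavidin donor/nickel chelate acceptor beads (10 ug/mL final), 30 min dark, luminescence read.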
With `CCOc1cc([N+](=O)[O-])cc2c1C(=O)Nc1ccccc1O2` the “activity change, negative = inhibition” value was inactive: 6.09%.
With `CC(C)OCCCNC1=C(Cl)C(=O)c2ccccc2C1=O` the Potency was active: 35.5 µM.
With `CN(C)c1ccc(N2CN=C3SCC(=O)N3C2)cc1` the Potency was active: 56.2 µM.
In the case of `CC(C)(C(=O)Nc1nccs1)c1ccccc1`, the “activity change, negative = inhibition” value is reported as inactive: 26.9%.
In the case of `Cc1ccc(Cl)cc1N1CCN(C(=O)c2ccc3c(c2)N(Cc2ccc(F)cc2)CCS3)CC1`, the “activity change, negative = inhibition” value is reported as inactive: 11.9%.
`COc1ccc(Br)cc1CN1CCC(N2CCCC2)CC1` was tested, and the Potency was inconclusive: 22.4 µM [inhibitor, single point].
For `CCOc1cc(CN2CCc3c([nH]c4ccccc34)C2)ccc1OC`, the Potency was inconclusive: 56.2 µM [inhibitor, single point].
With `COc1ccc(C2SCC(=O)N2c2c(C)n(C)n(-c3ccccc3)c2=O)cc1OC` (stereo unspecified) the Potency was inconclusive: 25.1 µM [inhibitor, single point].
With `COc1cccc(Nc2nc(-c3sc(N)nc3C)cs2)c1` the Potency was inconclusive: 70.8 µM [inhibitor, single point].
`CCOC(=O)C1CCCN(Cc2cc(Br)ccc2OC)C1` (stereo unspecified) was tested, and the Potency was inconclusive: 56.2 µM [inhibitor, partial curve].
For `CC(C)(C)[C@H](N)C(=O)N[C@H]1CCC2C3CC=C4C[C@@H](O)CC[C@]4(C)C3CC[C@@]21C` (stereo partly specified), the Potency was inconclusive: 89.1 µM [inhibitor, single point].
For `COC(=O)COc1ccc(S(=O)(=O)N2CCN(c3ccccc3)CC2)cc1`, the “activity change, negative = inhibition” value was inactive: 29.2%.
`C[C@H](NC(N)=O)C(=O)Nc1ccc2c(c1)OCO2` was tested, and the “activity change, negative = inhibition” value was inactive: 20.2%.
With `Oc1c(C=NCc2ccccc2)sc2ccccc12` the Potency was inconclusive: 70.8 µM [inhibitor, single point].
`CCN(CC(=O)Nc1ccccc1C(F)(F)F)C(=O)c1ccccc1OCc1ccc(F)cc1` was tested, and the “activity change, negative = inhibition” value was inactive: 18.4%.
For `CCN(CC)S(=O)(=O)c1ccc(N=Nc2cc(C)cc(Br)c2O)cc1`, the Potency was inconclusive: 28.2 µM [inhibitor, partial curve, poor fit].
In the case of `Cc1cc(Br)ccc1OCC(=O)N1CCCCCC1`, the “activity change, negative = inhibition” value is reported as inactive: 63.7%.
In the case of `O=C(CN1C(=O)NC(c2ccccc2)(c2ccccc2)C1=O)NCCNCCO`, the “activity change, negative = inhibition” value is reported as inactive: 32.1%.
With `COc1cc(/C=C(\C#N)c2nc3ccccc3[nH]2)cc(OC)c1O` the “activity change, negative = inhibition” value was inactive: -35.6%.
For `O=C(Oc1c(Br)cc(C(=S)N2CCOCC2)cc1Br)c1ccc(Cl)cc1`, the Potency was inconclusive: 17.8 µM [inhibitor, partial curve].
With `c1ccc(OCCOCCOc2ccccc2)cc1` the “activity change, negative = inhibition” value was inactive: 33.7% [at 57 µM].
With `COc1ccc(NC(=O)CN2CCN(C(=S)NC3CCCC3)CC2)cc1` the Potency was inconclusive: 89.1 µM [inhibitor, single point].
For `COc1ccc(/C(N)=N/OC(=O)c2ccc([N+](=O)[O-])c(C)c2)cc1OC`, the “activity change, negative = inhibition” value was inactive: 45%.
For `CC(/C=C1\SC(=S)N(CCCC(=O)Nc2ccc(C(=O)O)c(O)c2)C1=O)=C\c1ccccc1`, the Potency was inconclusive: 50.1 µM [inhibitor, partial curve].
With `CC#Cc1cc2c(cc1O)CCC1C2CCC2(C)C(O)CCC12` (stereo unspecified) the Potency was inconclusive: 89.1 µM [inhibitor, single point].
`CN(C)CCC1Sc2ccccc2Oc2ccccc21` (stereo unspecified) was tested, and the Potency was inconclusive: 17.8 µM [inhibitor, full curve, poor fit].
`O=C(COC(=O)c1n[nH]c(=O)c2ccccc12)NCc1ccccc1` was tested, and the “activity change, negative = inhibition” value was inactive: 33.6%.
In the case of `Cc1ccc2c(=O)cc(C(=O)Nc3cccc(C(F)(F)F)c3)oc2c1C`, the “activity change, negative = inhibition” value is reported as inactive: 5.07%.
In the case of `O=C(COC(=O)/C=C/c1ccccc1[N+](=O)[O-])NC(=O)NC1CCCC1`, the “activity change, negative = inhibition” value is reported as inactive: -3.58%.
With `COc1ccc2cc(C3CC(c4ccco4)=NN3S(C)(=O)=O)c(Cl)nc2c1` (stereo unspecified) the Potency was inconclusive: 44.7 µM [inhibitor, partial curve].
`Nc1ccccc1C#Cc1ccc([N+](=O)[O-])cc1` was tested, and the Potency was inconclusive: 44.7 µM [inhibitor, partial curve, poor fit].
In the case of `COc1ccc2nc(C)cc(N/N=C/c3cccc(OC)c3O)c2c1`, the Potency is reported as inconclusive: 44.7 µM [inhibitor, partial curve].
For `CC(C)(C)c1ccc(C(=O)NC(=S)NCC2CCCO2)cc1` (stereo unspecified), the “activity change, negative = inhibition” value was inactive: 18.1%.
For `N#Cc1nc(Cc2cccc3ccccc23)oc1N1CCN(c2ccccc2)CC1`, the Potency was inconclusive: 7.94 µM [inhibitor, full curve].
With `CCN1CCN(C(=S)NCC(C)C)CC1` the Potency was inconclusive: 56.2 µM [inhibitor, partial curve, poor fit].
For `O=C(Nc1ccccc1Cl)c1ccc2nccnc2c1`, the Potency was inconclusive: 100 µM [inhibitor, single point].
